Assay results taken from article PMC4336329 (PLoS ONE, 2015).
The campaign covered roughly 310,000 compounds. About 2,200 (0.71%) showed an effect of 50% or more. The effect is printed as a negative number. This is one part of the list.

These compounds were tested against human ether-à-go-go-related gene (hERG) potassium channel (human, UniProt Q12809) (assay: primary screen, population patch clamp on CHO cells stably expressing hERG).
human ether-à-go-go-related gene (hERG) potassium channel, sequence (Q12809 whole entry, looked up): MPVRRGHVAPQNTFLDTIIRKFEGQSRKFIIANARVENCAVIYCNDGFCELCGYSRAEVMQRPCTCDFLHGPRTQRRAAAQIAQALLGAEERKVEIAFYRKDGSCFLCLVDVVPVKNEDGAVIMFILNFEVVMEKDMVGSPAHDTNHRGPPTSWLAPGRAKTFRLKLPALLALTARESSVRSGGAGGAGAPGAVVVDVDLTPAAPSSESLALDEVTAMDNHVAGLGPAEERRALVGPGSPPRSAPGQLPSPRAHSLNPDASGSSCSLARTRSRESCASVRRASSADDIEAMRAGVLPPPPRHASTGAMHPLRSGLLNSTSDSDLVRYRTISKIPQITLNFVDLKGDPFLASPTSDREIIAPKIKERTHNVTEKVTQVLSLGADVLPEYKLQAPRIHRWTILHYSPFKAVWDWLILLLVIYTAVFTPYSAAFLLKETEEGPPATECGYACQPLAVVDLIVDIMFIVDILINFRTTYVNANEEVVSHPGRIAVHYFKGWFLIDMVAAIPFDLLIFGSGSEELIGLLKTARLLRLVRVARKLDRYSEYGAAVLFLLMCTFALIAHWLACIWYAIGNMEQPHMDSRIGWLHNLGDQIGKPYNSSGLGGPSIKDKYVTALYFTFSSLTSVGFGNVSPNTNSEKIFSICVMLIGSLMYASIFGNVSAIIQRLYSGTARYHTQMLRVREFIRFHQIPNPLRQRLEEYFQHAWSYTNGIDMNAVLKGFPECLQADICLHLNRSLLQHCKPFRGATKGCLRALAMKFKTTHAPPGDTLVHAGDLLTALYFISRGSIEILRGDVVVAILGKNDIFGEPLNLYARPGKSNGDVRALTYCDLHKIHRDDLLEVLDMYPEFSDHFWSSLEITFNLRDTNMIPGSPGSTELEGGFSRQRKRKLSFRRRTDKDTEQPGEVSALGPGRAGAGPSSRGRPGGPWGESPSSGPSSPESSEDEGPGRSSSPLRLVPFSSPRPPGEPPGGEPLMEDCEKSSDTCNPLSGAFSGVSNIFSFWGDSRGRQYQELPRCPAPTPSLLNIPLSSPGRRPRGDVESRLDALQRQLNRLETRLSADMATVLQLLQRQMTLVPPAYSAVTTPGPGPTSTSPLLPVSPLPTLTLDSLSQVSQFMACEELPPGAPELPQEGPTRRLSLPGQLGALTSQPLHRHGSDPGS
For O=C(CN(C(=O)c1csnn1)c1ccccc1C(F)(F)F)NCc1ccccc1, the “hERG current change (%, negative = inhibition) at 1uM” value was 12%. In the case of CCCn1cc(CN2CCN(Cc3ccc(C)o3)C(CCO)C2)c(C)n1 (stereo not drawn), the “hERG current change (%, negative = inhibition) at 1uM” value is reported as 7.78%. COC(=O)CCC(NS(=O)(=O)OCC(Cl)(Cl)Cl)c1ccccc1 (stereo not drawn) was tested, and the “hERG current change (%, negative = inhibition) at 1uM” value was 6.34%. CCN(CC)S(=O)(=O)c1ccc(N2CCOCC2)c(NC(=O)c2ccccc2F)c1 was tested, and the “hERG current change (%, negative = inhibition) at 1uM” value was 7.36%. In the case of CCOC(=O)N1CCN(CC(O)COCc2cc(OC)c(OC)c(OC)c2)CC1.Cl (stereo not drawn), the “hERG current change (%, negative = inhibition) at 1uM” value is reported as 16.3%. For COC(=O)c1ccccc1NC(=S)NC(=O)c1ccccc1, the “hERG current change (%, negative = inhibition) at 1uM” value was 13.8%. With CCOc1ccc(N(C(=O)c2ccc(S(=O)(=O)N3CCCC3)cc2)C2C=CS(=O)(=O)C2)cc1 (stereo not drawn) the “hERG current change (%, negative = inhibition) at 1uM” value was -15.6%. In the case of COc1cc(/C=C/c2ccc3cccc(O)c3n2)ccc1O, the “hERG current change (%, negative = inhibition) at 1uM” value is reported as 9.59%. With CCOC(=O)C1=C(C)N=C2SC(C(=O)OC)=CC(=O)N2C1c1cccc(OC)c1 (stereo not drawn) the “hERG current change (%, negative = inhibition) at 1uM” value was 3.39%. In the case of Cc1cc(C)nc(Nc2n[nH]c(-c3ccc(C(C)(C)C)cc3)n2)n1, the “hERG current change (%, negative = inhibition) at 1uM” value is reported as 16.5%. COc1cccc(C(=O)N(c2ccccc2)C2C=CS(=O)(=O)C2)c1 (stereo not drawn) was tested, and the “hERG current change (%, negative = inhibition) at 1uM” value was 11.4%. CCCCNc1nc2sc3c(c2c(=O)n1-c1cccc(Cl)c1)CCN(C)C3 was tested, and the “hERG current change (%, negative = inhibition) at 1uM” value was 10.2%. With O=C(CC(Sc1ccc(Br)cc1)C(=O)O)c1ccc(Br)cc1 (stereo not drawn) the “hERG current change (%, negative = inhibition) at 1uM” value was 18.1%. In the case of Cc1ccc(C(=O)N2CCCC(CCC(=O)N3CCN(c4ccccn4)CC3)C2)cn1 (stereo not drawn), the “hERG current change (%, negative = inhibition) at 1uM” value is reported as 5.08%. Cn1c(=O)c2cc(S(=O)(=O)Nc3cc(C(=O)O)cc(C(=O)O)c3)ccc2n(C)c1=O was tested, and the “hERG current change (%, negative = inhibition) at 1uM” value was 10%. For Cc1cc(C)n(CCOc2ccc(Cl)cc2Cl)n1, the “hERG current change (%, negative = inhibition) at 1uM” value was 8.11%. For Cc1sc(-c2ccccn2)nc1OC(=O)c1cccc(Cl)c1Cl, the “hERG current change (%, negative = inhibition) at 1uM” value was 6.7%. For O=S(=O)(NCCNS(=O)(=O)c1ccccc1)c1ccccc1, the “hERG current change (%, negative = inhibition) at 1uM” value was 1.31%. For Cc1cc([N+](=O)[O-])nn1CC(=O)N(C)C1CCCCC1, the “hERG current change (%, negative = inhibition) at 1uM” value was -22.1%. In the case of COC(=O)c1c(NC(=S)Nc2ccc(CC(=O)O)cc2)sc(C)c1C, the “hERG current change (%, negative = inhibition) at 1uM” value is reported as 14.9%. With Cc1ccccc1OC(C)C(=O)Nc1ccc(S(=O)(=O)N2CCCC2)cc1 (stereo not drawn) the “hERG current change (%, negative = inhibition) at 1uM” value was -6.84%. With CCOc1cc(NC(=O)c2ccco2)c(OCC)cc1NC(=O)c1ccco1 the “hERG current change (%, negative = inhibition) at 1uM” value was 9.13%. CC1=NN(c2ccccc2)C(=O)/C1=C/c1cc(C)n(C2CC2)c1C was tested, and the “hERG current change (%, negative = inhibition) at 1uM” value was 10.9%. In the case of CCCCN(CCCC)C(=O)CCS(=O)(=O)c1ccc2c(c1)n(C)c(=O)c(=O)n2C, the “hERG current change (%, negative = inhibition) at 1uM” value is reported as -35.6%.
